The values that follow come from the supplement of paper PMC10126150.

For this data set, the system named is ATP. The experiment in a line: switch fluorescence ratio, 500 uM ATP over buffer (Cy3 cluster intensity, sum of 5 cycles each) (fold (ratio)); higher = stronger signal-on switching upon ATP binding; sequences stand for … in TCGTCGGCAGCGTCAGATGTGTATAAGAGACAGTTTTTTTTTTTTTTTTTTTTTTTTT…TC. Particulars: aptamer strand: ATP DNA aptamer (quencher-CACCTGGGGGAGTATTGCGGAGGAAGG + anchor), 100 nM annealed; ATP concentration: 500 uM; one replicate. The essentials:
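Five buffer/ATP imaging cycles were run on Cy3-labelled switching-strand clusters on a modified Illumina MiSeq flow-cell, with NaOH stripping and re-annealing between cycles. In each cycle, clusters annealed to 100 nM quencher-labelled ATP aptamer were imaged in selection buffer, then after 15 min with 500 uM ATP at 22 °C. Per cluster, the fluorescence ratio is summed target-cycle over summed buffer-cycle Cy3 intensity, averaged per switch-domain sequence. Only clusters within 100-1000 RFU were kept.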

Sequences with one replicate were seen in a single cluster, so their values are uncertain.
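Further: ATP exposure 15 min at 22 °C before imaging.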

As for CCGCGGACTT, the switch fluorescence ratio came to 1.2.

Take AAACAGTAA: the switch fluorescence ratio was 1.05.

Consider AAACGCCCG, for which the switch fluorescence ratio stood at 1.02.

With GGCCCCTATC, the switch fluorescence ratio is 1.03.

In the case of GTCCTGACCA, the switch fluorescence ratio is 0.999.

As for TGCCTGGGTA, the switch fluorescence ratio turned out to be 1.04.

Turning to ATTACATTTA, the switch fluorescence ratio came to 1.

On to AAACGTTTTT, for which the switch fluorescence ratio was found to be 0.978.

TAGCCAGATC: the switch fluorescence ratio was 1.01.

Turning to CACCAAAGTT, the switch fluorescence ratio is 1.01.

On to GTCAGTAAGA, for which the switch fluorescence ratio stood at 1.17.

AGTTGCCCCA: the switch fluorescence ratio was 0.972.

Regarding CAGAGTAGCG, the switch fluorescence ratio worked out at 0.942.

For the sequence AGCTGGTGCC, the switch fluorescence ratio was found to be 1.07.

For the sequence GATTGCATAG, the switch fluorescence ratio was 1.01.

As to ACTGTAGGGT, the switch fluorescence ratio worked out at 1.08.

On to TTCTAAGGGC, for which the switch fluorescence ratio came to 1.01.

As to CATGTTGAAA, the switch fluorescence ratio turned out to be 1.

Take AGCATTAACA: the switch fluorescence ratio worked out at 0.994.

On to AGTATGATGT, for which the switch fluorescence ratio is 0.968.

Turning to GCGCTAATTA, the switch fluorescence ratio worked out at 0.993.

For the sequence ACGTATTTGA, the switch fluorescence ratio is 1.14.

Turning to TACAGATAAT, the switch fluorescence ratio turned out to be 0.99.

Regarding CAATCGTGTC, the switch fluorescence ratio is 0.988.

For the sequence ACCCGTGCGT, the switch fluorescence ratio turned out to be 1.

As to GTGGATGAGT, the switch fluorescence ratio amounted to 0.997.

As to CTGCCTTGCA, the switch fluorescence ratio worked out at 1.04.

GGTGCCACTA: the switch fluorescence ratio turned out to be 0.984.

With GATTTGTGCG, the switch fluorescence ratio was 0.971.

Regarding TGAGCGTATA, the switch fluorescence ratio was 1.04.

Turning to ACTGTATAG, the switch fluorescence ratio amounted to 1.02.

With GGCAATGCGC, the switch fluorescence ratio was determined as 1.84.

Take AATTGTGCTA: the switch fluorescence ratio was found to be 1.01.

For the sequence ATACCGGCAC, the switch fluorescence ratio came out at 1.31.

With CGTGAATGAG, the switch fluorescence ratio amounted to 0.975.

As for TGTTTCGTTG, the switch fluorescence ratio amounted to 1.

GCATGAGTGG: the switch fluorescence ratio is 0.972.

Turning to GGGCGAGCCC, the switch fluorescence ratio turned out to be 1.02.

On to TCCTTTGTT, for which the switch fluorescence ratio was 0.96.

As to TAGAAATAGG, the switch fluorescence ratio came to 1.01.

On to GTCGTGGTCG, for which the switch fluorescence ratio turned out to be 1.01.

On to CATTAAGAAG, for which the switch fluorescence ratio is 1.

ACGGGCTCAT: the switch fluorescence ratio amounted to 0.99.

In the case of CGGACTAGCT, the switch fluorescence ratio was determined as 1.05.

Regarding AATTGAAATG, the switch fluorescence ratio came out at 1.04.

As for GCCCGTGATC, the switch fluorescence ratio came out at 1.59.

Consider CAGCGCATAA, for which the switch fluorescence ratio came to 2.51.

In the case of TGCAGACCTC, the switch fluorescence ratio was 1.04.

On to TAGGCAAGGC, for which the switch fluorescence ratio is 1.34.

For CGAGCGATTA, the switch fluorescence ratio was determined as 1.63.

For the sequence GGTCACATGT, the switch fluorescence ratio is 0.977.

For TTCCTGAGCT, the switch fluorescence ratio was determined as 1.25.

Regarding TGACTATACT, the switch fluorescence ratio amounted to 1.35.

As to GATCCAAAGA, the switch fluorescence ratio was 1.07.

With ATCGATATCC, the switch fluorescence ratio turned out to be 1.03.

Consider CCTGTGGATA, for which the switch fluorescence ratio worked out at 1.04.

In the case of CGTCATGGCA, the switch fluorescence ratio was 0.98.

For the sequence ATCTAACCGT, the switch fluorescence ratio was determined as 0.977.

CGCGTTTACC: the switch fluorescence ratio amounted to 1.04.

With AGTTCACGCT, the switch fluorescence ratio worked out at 1.

Take AGTTCGTTGT: the switch fluorescence ratio was 1.01.

As to TAACTTGACT, the switch fluorescence ratio worked out at 1.04.

For the sequence CATTCCGGAA, the switch fluorescence ratio amounted to 1.16.

Regarding AAGAAACTGA, the switch fluorescence ratio came to 1.04.

As for GATGCTCACT, the switch fluorescence ratio was 0.976.

For CATGCGAAA, the switch fluorescence ratio is 1.13.

As for GTTCTTATTT, the switch fluorescence ratio worked out at 0.998.

As for ATGGACTCTT, the switch fluorescence ratio came to 0.99.

GTGGTTATCA: the switch fluorescence ratio was 1.01.

Turning to TAAGGACTC, the switch fluorescence ratio stood at 1.06.

Regarding AATAACTAAA, the switch fluorescence ratio was 1.01.

AAAGTACATA: the switch fluorescence ratio was determined as 1.2.

With TATTGGAGAG, the switch fluorescence ratio was 1.04.

As to TCCGGCCGCG, the switch fluorescence ratio came out at 1.6.

Consider GGCACCGTAT, for which the switch fluorescence ratio worked out at 1.04.

Take CAGAATCAGG: the switch fluorescence ratio worked out at 0.955.

With CGGTCCCCAT, the switch fluorescence ratio was determined as 1.01.

Turning to CTTCGCGGGG, the switch fluorescence ratio turned out to be 1.

Turning to ATGTTGAAC, the switch fluorescence ratio was 1.01.

Consider TCTAAATACG, for which the switch fluorescence ratio is 1.13.

As for ATGTTGATGC, the switch fluorescence ratio came out at 0.959.

Turning to CCGGTGCAGA, the switch fluorescence ratio is 2.13.

In the case of TTCGACGGGC, the switch fluorescence ratio stood at 1.25.

In the case of TTGAAGGTAG, the switch fluorescence ratio worked out at 1.

As to TTCGAAGAGC, the switch fluorescence ratio came to 1.04.

For CTCTTCTGG, the switch fluorescence ratio came out at 1.01.

Turning to CAATCTCGTT, the switch fluorescence ratio is 1.

On to CGATTGTGTG, for which the switch fluorescence ratio is 0.971.

AGATACGTGC: the switch fluorescence ratio was found to be 1.05.

As for CCAGCATAAG, the switch fluorescence ratio came to 1.37.

TGTTACGGGA: the switch fluorescence ratio came out at 1.04.

For the sequence CCATGGTGGT, the switch fluorescence ratio is 1.01.

Take TAGAGTGCGT: the switch fluorescence ratio was found to be 1.01.

For AAGTCGAAAG, the switch fluorescence ratio stood at 0.996.

In the case of CTGCGCCTGC, the switch fluorescence ratio is 1.47.

CGCAGCCCGG: the switch fluorescence ratio was 1.35.

Consider CAAAGTGTGC, for which the switch fluorescence ratio worked out at 1.15.

Regarding CGGGGGTACT, the switch fluorescence ratio is 1.03.

AGCTGCGCTG: the switch fluorescence ratio amounted to 0.961.

For CGTCCATTA, the switch fluorescence ratio was determined as 1.

For the sequence ACGGGTAGCG, the switch fluorescence ratio worked out at 0.984.

For the sequence CAATGGACGA, the switch fluorescence ratio stood at 1.02.

Turning to ACTCGAGATT, the switch fluorescence ratio worked out at 1.04.

In the case of CCGGACCCAG, the switch fluorescence ratio worked out at 1.3.

For AAACATTCGG, the switch fluorescence ratio stood at 1.02.

GGCGAATGTC: the switch fluorescence ratio stood at 0.963.

In the case of ACGTGCATGG, the switch fluorescence ratio is 0.979.

On to GTTAATCTCG, for which the switch fluorescence ratio worked out at 0.978.

Consider TGAAGCCAC, for which the switch fluorescence ratio was found to be 1.11.

With TATTGAACGT, the switch fluorescence ratio was found to be 1.02.

In the case of GAGGAGGCTG, the switch fluorescence ratio came out at 0.948.

Regarding CACTATGCCA, the switch fluorescence ratio is 1.02.

ATTACCTAAT: the switch fluorescence ratio amounted to 1.05.

For the sequence CAGGCCACAT, the switch fluorescence ratio came to 1.04.

Take CGTTCAGAGT: the switch fluorescence ratio was found to be 1.01.

Consider TTTTCTCATT, for which the switch fluorescence ratio was 0.984.

For the sequence GAAGCTGGGA, the switch fluorescence ratio was found to be 0.969.

With TTATTTATAG, the switch fluorescence ratio was determined as 0.973.

On to GGTATACTCA, for which the switch fluorescence ratio is 1.12.

Regarding GATGAAAGTT, the switch fluorescence ratio is 1.02.
